The values that follow come from the supplement of paper PMC8728848.

What all share (assay): glycan array binding signal (z-score within array); higher = stronger binding
What all share (conditions): glycan notation: IUPAC condensed, linker removed; mutation: F63H

In experiment [1] the target is Gal(b1-3)[Fuc(a1-4)]GlcNAc(b1-3)Gal(b1-4)[Fuc(a1-3)]GlcNAc. An outline of the steps:
(§1)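 The binding signal is a Z-score computed within each array and averaged over linkers. Arrays of the same protein sequence at different concentrations or buffers were also averaged together. Data originate from 3228 arrays in the Consortium for Functional Glycomics database, kept only where the protein sequence was available.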

The target in experiment [2] is Gal(b1-3)[Fuc(a1-4)]GlcNAc(b1-6)GalNAc. The method, boiled down:
as §1

Experiment [3] has as its target Gal(b1-3)[GlcNAc(b1-6)]GalNAc. An outline of the steps:
as §1

The target of experiment [4] is Gal(b1-3)[Neu5Ac(a2-6)]GalNAc. The method, boiled down: as §1
Experiment [5] concerns the target Gal(b1-3)[Neu5Ac(a2-6)]GlcNAc(b1-4)Gal(b1-4)Glc. The method, boiled down: as §1
Experiment [6] deals with Gal(b1-3)[Neu5Ac(b2-6)]GalNAc. The method, boiled down: as §1
Experiment [7] deals with Gal(b1-4)Gal. An outline of the steps: as §1
In experiment [8] the target is Gal(b1-4)GalNAc(a1-3)[Fuc(a1-2)]Gal(b1-4)GlcNAc. An outline of the steps:
as §1

Experiment [9] concerns the target Gal(b1-4)GalNAc(b1-3)[Fuc(a1-2)]Gal(b1-4)GlcNAc. An outline of the steps:
as §1

Experiment [10] concerns the target Gal(b1-4)Glc. An outline of the steps:
as §1

For experiment [11], the target named is Gal(b1-4)Glc6S. The method, boiled down:
as §1

Experiment [12] has as its target Gal(b1-4)GlcNAc. The method, boiled down:
as §1

Experiment [13] addresses Gal(b1-4)GlcNAc(a1-6)Gal(b1-4)GlcNAc. An outline of the steps:
as §1

The target in experiment [14] is Gal(b1-4)GlcNAc(b1-2)Man. The method, boiled down:
as §1

Experiment [15] has as its target Gal(b1-4)GlcNAc(b1-2)Man(a1-3)Man(b1-4)GlcNAc(b1-4)GlcNAc. The method, boiled down:
as §1

The target in experiment [16] is Gal(b1-4)GlcNAc(b1-2)Man(a1-3)[Gal(b1-4)GlcNAc(b1-2)Man(a1-6)]Man(b1-4)GlcNAc(b1-4)GlcNAc. The method, boiled down: as §1
Experiment [17] deals with Gal(b1-4)GlcNAc(b1-2)Man(a1-3)[Gal(b1-4)GlcNAc(b1-2)Man(a1-6)]Man(b1-4)GlcNAc(b1-4)[Fuc(a1-6)]GlcNAc. An outline of the steps:
as §1

Experiment [18] has as its target Gal(b1-4)GlcNAc(b1-2)Man(a1-3)[Gal(b1-4)GlcNAc(b1-2)Man(a1-6)][Gal(b1-4)GlcNAc(b1-4)]Man(b1-4)GlcNAc(b1-4)[Fuc(a1-6)]GlcNAc. The method, boiled down:
as §1

For experiment [19], the target named is Gal(b1-4)GlcNAc(b1-2)Man(a1-3)[Gal(b1-4)GlcNAc(b1-2)Man(a1-6)][GlcNAc(b1-4)]Man(b1-4)GlcNAc(b1-4)[Fuc(a1-6)]GlcNAc. An outline of the steps:
as §1

The target of experiment [20] is Gal(b1-4)GlcNAc(b1-2)Man(a1-3)[GlcNAc(b1-2)Man(a1-6)]Man(b1-4)GlcNAc(b1-4)GlcNAc. The method, boiled down: as §1
Experiment [21] concerns the target Gal(b1-4)GlcNAc(b1-2)Man(a1-3)[GlcNAc(b1-4)][Gal(b1-4)GlcNAc(b1-2)Man(a1-6)]Man(b1-4)GlcNAc(b1-4)GlcNAc. The method, boiled down:
as §1

For experiment [22], the target named is Gal(b1-4)GlcNAc(b1-2)Man(a1-3)[Man(a1-6)]Man(b1-4)GlcNAc(b1-4)GlcNAc. The method, boiled down: as §1
For experiment [23], the target named is Gal(b1-4)GlcNAc(b1-2)Man(a1-6)Man(b1-4)GlcNAc(b1-4)GlcNAc. The method, boiled down: as §1

The list shows a part of the results.

B1: AAL (Agrocybe aegerita), Q6WY08 (protein)
chain: MQGVNIYNISAGTSVDLAAPVTTGDIVTFFSSALNLNAGAGNPNNTTLNLFAENGAYLLHIAHRLQENVIIFNSRQPDGPWLVEQRVSDVANQFAGIDGKAMVTVFDHGDKYQVVINEKTVIQYTKQISGLTLSLSYNATEETSIFSTVVEAVTYTGLALEHHHHHH
As to B1, the “glycan array binding signal (z-score)” value in experiment [1] was 0.002; in experiment [2] it was 0.294; in experiment [3], -0.12; in experiment [4], 0.235; in [5], 0.571; in [6], 0.218. For the same molecule, the “glycan array binding signal (z-score)” value in experiment [7] is -0.522; in experiment [8] it was -0.29; in experiment [9], 0.273; in experiment [10], -0.57; in [11], -0.108; in [12], -0.505. In addition, the “glycan array binding signal (z-score)” value in experiment [13] was -0.321; in [14] it was 0.042; in experiment [15], -0.293; in experiment [16], -0.102; in experiment [17], -0.166; in [18] it was -0.332. The “glycan array binding signal (z-score)” value in experiment [19] is 0.125; in experiment [20] it was -0.361; in [21], -0.345; in experiment [22] it was -0.322; in [23], 0.16.
